Among the data in article PMC9911399, “Two distinct binding modes provide the RNA-binding protein RbFox with extraordinary sequence specificity” are binding signal values, retold here.

Substitutions are numbered along the chain they refer to; changes in the protein carry UniProt numbers. The list shows a part of the results.

T1: RBFOX1 RRM (Homo sapiens, UniProt Q9NWB1 109-208)
T1 sequence: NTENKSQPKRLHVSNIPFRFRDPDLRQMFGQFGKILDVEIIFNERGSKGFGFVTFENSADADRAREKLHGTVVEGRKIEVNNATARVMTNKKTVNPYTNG

B1: GUGAAAC (DNA:RNA)
RNA: GGGAGACCGGAAUUCAGAUUGUCCGUGAAACUUAAAUCCCGUCGUAGCCACCA
DNA 1: CAATCTGAATTCCGGTCTCCC
DNA 2: TGGTGGCTACGACGGGATT
B2: CCCGCAA (DNA:RNA)
RNA: B1 RNA with G25C, U26C, G27C, A28G, A29C, C31A
DNA 1: CAATCTGAATTCCGGTCTCCC
DNA 2: TGGTGGCTACGACGGGATT
B3: CCACCGU (DNA:RNA)
RNA: GGGAGACCGGAAUUCAGAUUGUCCCCACCGUUUAAAUCCCGUCGUAGCCACCA
DNA 1: CAATCTGAATTCCGGTCTCCC
DNA 2: TGGTGGCTACGACGGGATT
B4: GCACUCU (DNA:RNA)
RNA: B3 RNA with C25G, C29U, G30C
DNA 1: CAATCTGAATTCCGGTCTCCC
DNA 2: TGGTGGCTACGACGGGATT
B5: CGCACUG (DNA:RNA)
RNA: B3 RNA with C26G, A27C, C28A, G30U, U31G
DNA 1: CAATCTGAATTCCGGTCTCCC
DNA 2: TGGTGGCTACGACGGGATT
B6: CUCUGUU (DNA:RNA)
RNA: B3 RNA with C26U, A27C, C28U, C29G, G30U
DNA 1: CAATCTGAATTCCGGTCTCCC
DNA 2: TGGTGGCTACGACGGGATT
B7: GUUCGUG (DNA:RNA)
RNA: B1 RNA with G27U, A28C, A29G, A30U, C31G
DNA 1: CAATCTGAATTCCGGTCTCCC
DNA 2: TGGTGGCTACGACGGGATT
B8: AUGUAAG (DNA:RNA)
RNA: B1 RNA with G25A, A28U, C31G
DNA 1: CAATCTGAATTCCGGTCTCCC
DNA 2: TGGTGGCTACGACGGGATT
B9: CCAGUCC (DNA:RNA)
RNA: B3 RNA with C28G, C29U, G30C, U31C
DNA 1: CAATCTGAATTCCGGTCTCCC
DNA 2: TGGTGGCTACGACGGGATT
B10: UGGUCCG (DNA:RNA)
RNA: B3 RNA with C25U, C26G, A27G, C28U, G30C, U31G
DNA 1: CAATCTGAATTCCGGTCTCCC
DNA 2: TGGTGGCTACGACGGGATT
B11: GGUUGAG (DNA:RNA)
RNA: B1 RNA with U26G, G27U, A28U, A29G, C31G
DNA 1: CAATCTGAATTCCGGTCTCCC
DNA 2: TGGTGGCTACGACGGGATT
B12: CAGAGGC (DNA:RNA)
RNA: B1 RNA with G25C, U26A, A29G, A30G
DNA 1: CAATCTGAATTCCGGTCTCCC
DNA 2: TGGTGGCTACGACGGGATT
B13: CUUUGGA (DNA:RNA)
RNA: B3 RNA with C26U, A27U, C28U, C29G, U31A
DNA 1: CAATCTGAATTCCGGTCTCCC
DNA 2: TGGTGGCTACGACGGGATT
B14: AACUUUC (DNA:RNA)
RNA: B1 RNA with G25A, U26A, G27C, A28U, A29U, A30U
DNA 1: CAATCTGAATTCCGGTCTCCC
DNA 2: TGGTGGCTACGACGGGATT
B15: CAUGAUC (DNA:RNA)
RNA: B1 RNA with G25C, U26A, G27U, A28G, A30U
DNA 1: CAATCTGAATTCCGGTCTCCC
DNA 2: TGGTGGCTACGACGGGATT
B16: UACUGUG (DNA:RNA)
RNA: GGGAGACCGGAAUUCAGAUUGUCCUACUGUGUUAAAUCCCGUCGUAGCCACCA
DNA 1: CAATCTGAATTCCGGTCTCCC
DNA 2: TGGTGGCTACGACGGGATT
B17: AAUCCCU (DNA:RNA)
RNA: B3 RNA with C25A, C26A, A27U, G30C
DNA 1: CAATCTGAATTCCGGTCTCCC
DNA 2: TGGTGGCTACGACGGGATT
B18: CGUGCAG (DNA:RNA)
RNA: B3 RNA with C26G, A27U, C28G, G30A, U31G
DNA 1: CAATCTGAATTCCGGTCTCCC
DNA 2: TGGTGGCTACGACGGGATT
B19: ACUUUAC (DNA:RNA)
RNA: B1 RNA with G25A, U26C, G27U, A28U, A29U
DNA 1: CAATCTGAATTCCGGTCTCCC
DNA 2: TGGTGGCTACGACGGGATT
B20: UGGAAGC (DNA:RNA)
RNA: B1 RNA with G25U, U26G, A30G
DNA 1: CAATCTGAATTCCGGTCTCCC
DNA 2: TGGTGGCTACGACGGGATT
B21: CGCGGUU (DNA:RNA)
RNA: B16 RNA with U25C, A26G, U28G, G31U
DNA 1: CAATCTGAATTCCGGTCTCCC
DNA 2: TGGTGGCTACGACGGGATT
B22: AGAAAUA (DNA:RNA)
RNA: B1 RNA with G25A, U26G, G27A, A30U, C31A
DNA 1: CAATCTGAATTCCGGTCTCCC
DNA 2: TGGTGGCTACGACGGGATT
B23: UUCAGAG (DNA:RNA)
RNA: B16 RNA with A26U, U28A, U30A
DNA 1: CAATCTGAATTCCGGTCTCCC
DNA 2: TGGTGGCTACGACGGGATT
B24: AGCGCGU (DNA:RNA)
RNA: B3 RNA with C25A, C26G, A27C, C28G
DNA 1: CAATCTGAATTCCGGTCTCCC
DNA 2: TGGTGGCTACGACGGGATT
B25: GCCCGCA (DNA:RNA)
RNA: B3 RNA with C25G, A27C, C29G, G30C, U31A
DNA 1: CAATCTGAATTCCGGTCTCCC
DNA 2: TGGTGGCTACGACGGGATT
B26: ACGUUCG (DNA:RNA)
RNA: B16 RNA with U25A, A26C, C27G, G29U, U30C
DNA 1: CAATCTGAATTCCGGTCTCCC
DNA 2: TGGTGGCTACGACGGGATT
B27: CUUCAGA (DNA:RNA)
RNA: B3 RNA with C26U, A27U, C29A, U31A
DNA 1: CAATCTGAATTCCGGTCTCCC
DNA 2: TGGTGGCTACGACGGGATT
B28: ACACUAG (DNA:RNA)
RNA: B3 RNA with C25A, C29U, G30A, U31G
DNA 1: CAATCTGAATTCCGGTCTCCC
DNA 2: TGGTGGCTACGACGGGATT
B29: GUGGUAC (DNA:RNA)
RNA: B1 RNA with A28G, A29U
DNA 1: CAATCTGAATTCCGGTCTCCC
DNA 2: TGGTGGCTACGACGGGATT
B30: UUGCUGC (DNA:RNA)
RNA: B1 RNA with G25U, A28C, A29U, A30G
DNA 1: CAATCTGAATTCCGGTCTCCC
DNA 2: TGGTGGCTACGACGGGATT
B31: GCAUAGA (DNA:RNA)
RNA: B3 RNA with C25G, C28U, C29A, U31A
DNA 1: CAATCTGAATTCCGGTCTCCC
DNA 2: TGGTGGCTACGACGGGATT

In the test the target is T1, RBFOX1 RRM. In words: EMSA; HiTS-Eq, 1 nM pool, 10 min; buffer printed only for the single-RNA assays: 10 mM Tris pH 7.5, 150 mM NaCl, 3.4 mM EDTA, 0.001% NP-40, 30 C. The following applies: tags: His6 N-terminal (pET28a); label: 5' 32P. Put shortly:
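Relative association constants, normalised to the cognate motif, were derived by comparing read counts of each RNA species with those of the control reaction. The RNA sequenced was the free fraction, separated by 8% native PAGE after a 10 min equilibration in 50 µL of 1 nM 5′-radiolabelled RNA (7 randomized nucleotides) with increasing concentrations of purified wild-type or mutant RbFox RRM.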
On the technique in general: A gel shift assay detects complexes by their altered migration in electrophoresis.
Consider B1, for which the binding signal is 0.0109 KA relative to UGCAUGU.

In the case of B2, the binding signal was 0.00264 KA relative to UGCAUGU. As to B3, the binding signal was 0.0012 KA relative to UGCAUGU.

With B4, the binding signal is 0.00779 KA relative to UGCAUGU. Under B5 stands 0.0157 KA relative to UGCAUGU. Under B6 stands 0.0147 KA relative to UGCAUGU. Under B7 stands 0.0268 KA relative to UGCAUGU; under B8, 0.0148 KA relative to UGCAUGU; under B9, 0.00513 KA relative to UGCAUGU. Consider B10, for which the binding signal is 0.017 KA relative to UGCAUGU. Regarding B11, the binding signal is 0.0204 KA relative to UGCAUGU. For the molecule B12, the binding signal was 0.00841 KA relative to UGCAUGU. Turning to B13, the binding signal was 0.00778 KA relative to UGCAUGU. Under B14 stands 0.00552 KA relative to UGCAUGU; under B15, 0.00846 KA relative to UGCAUGU; under B16, 0.0225 KA relative to UGCAUGU.

As to B17, the binding signal is 0.000403 KA relative to UGCAUGU. Consider B18, for which the binding signal was 0.0123 KA relative to UGCAUGU. Regarding B19, the binding signal was 0.00258 KA relative to UGCAUGU.

With B20, the binding signal was 0.0215 KA relative to UGCAUGU. The result for B21 reads 0.0152 KA relative to UGCAUGU; that for B22, 0.00119 KA relative to UGCAUGU.

B23: the binding signal is 0.013 KA relative to UGCAUGU. Take B24: the binding signal is 0.0153 KA relative to UGCAUGU.

For the molecule B25, the binding signal was 0.0133 KA relative to UGCAUGU. In the case of B26, the binding signal is 0.0141 KA relative to UGCAUGU. The result for B27 reads 0.00958 KA relative to UGCAUGU. The result for B28 reads 0.00182 KA relative to UGCAUGU; that for B29, 0.0175 KA relative to UGCAUGU; that for B30, 0.0167 KA relative to UGCAUGU.

With B31, the binding signal was 0.0137 KA relative to UGCAUGU.
